# Hit rate of the full screen: of about 110,000 compounds, about 230 (0.21%) showed an effect of 50% or more. Some of the results follow.
# Biological target: DPAP1 (Plasmodium falciparum, UniProt Q8IIJ9)
# Experiment: primary screen, percent inhibition; read by cleavage of a fluorogenic dipeptide substrate; higher = more effect of the substance
# Parameters: species or system P. falciparum D10 trophozoite lysates; single well
# 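Note: 30 min substrate incubation versus DMSO and 10 µM JCP410 controls.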
# Chain of DPAP1 (Q8IIJ9 whole entry, looked up): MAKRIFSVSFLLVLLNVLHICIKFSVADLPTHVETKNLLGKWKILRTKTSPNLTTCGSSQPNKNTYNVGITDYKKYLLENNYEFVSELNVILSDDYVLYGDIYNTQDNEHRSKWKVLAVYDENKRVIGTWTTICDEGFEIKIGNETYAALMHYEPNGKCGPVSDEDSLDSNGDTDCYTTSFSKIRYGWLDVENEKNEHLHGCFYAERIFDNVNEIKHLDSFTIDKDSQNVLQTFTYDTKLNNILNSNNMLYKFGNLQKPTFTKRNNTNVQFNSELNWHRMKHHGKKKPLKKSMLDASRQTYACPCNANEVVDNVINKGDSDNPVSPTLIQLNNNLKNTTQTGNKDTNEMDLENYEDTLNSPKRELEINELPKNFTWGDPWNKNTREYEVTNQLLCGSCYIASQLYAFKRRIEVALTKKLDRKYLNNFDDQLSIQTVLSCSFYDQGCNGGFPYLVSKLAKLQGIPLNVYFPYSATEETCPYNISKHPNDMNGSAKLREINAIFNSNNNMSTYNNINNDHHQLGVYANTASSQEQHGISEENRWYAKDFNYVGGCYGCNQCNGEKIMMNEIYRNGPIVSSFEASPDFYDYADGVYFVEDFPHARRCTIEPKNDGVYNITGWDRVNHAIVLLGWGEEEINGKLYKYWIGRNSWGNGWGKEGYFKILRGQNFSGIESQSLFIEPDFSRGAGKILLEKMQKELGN
row,SMILES,% Inhibition @ 10 uM [%]
1,Cc1ccc(CNC(=O)Cn2c(=O)c3sccc3n(Cc3ccc(C)cc3)c2=O)cc1,-3.12
2,CCN1CCN(Cc2cc(OC)ccc2OC)CC1,5.42
3,CCCCCCc1nnc(NC(=O)OCC)s1,3.74
4,O=C(CN(C1CCCCC1)S(=O)(=O)c1ccc(Cl)cc1)NCC1CCCO1 (centres unmarked),-5.4
5,COc1ccc(O)c(C2Oc3ccccc3C3CC(c4cccs4)=NN32)c1 (centres unmarked),23.3
6,Cc1ccc2nc(-c3ccccc3O)c(C)c(C(=O)O)c2c1,-0.116
7,CCOC(=O)N1CCN(c2c(-c3cc(C)c(C)cc3C)c(=O)c2=O)CC1,-3.05
8,COc1cc2c(cc1OC)C(C(CCC(C)C)C(N)=O)=NC(C)(C)C2 (centres unmarked),-3.71
9,COc1ccc(COCC(O)CN2CCOCC2)cc1OC (centres unmarked),-2.15
10,CSc1nc2c(sc3ccccc32)c(=O)n1Cc1ccc2c(c1)OCO2,-1.17
11,CCN(CCN(C)C)Cc1cccc(Cl)c1,-2.56
12,CC(C)OCCCNC(=O)c1cc2c(-c3ccccc3F)nn(C)c2s1,0.317
13,NS(=O)(=O)c1ccc(NC(=S)NC(=O)c2ccco2)cc1,-6.82
14,N#Cc1c(N)nc2c(c1-c1ccc(Br)cc1)CCCCCC2,2.47
15,O=c1ccc2ccc(OC3OC(CO)C(O)C(O)C3O)c(O)c2o1 (centres unmarked),-2.15
16,Cc1cc(-c2ccc(C)c(S(=O)(=O)N(C)CC3COc4ccccc4O3)c2)on1 (centres unmarked),-5.12
17,COc1ccc(NC(=O)c2cccs2)c([N+](=O)[O-])c1,-3.04
18,O=C(Cc1ccccc1)Nc1nc(=O)c2ccccc2s1,-4.35
19,Cc1ccc(O)c(C(=O)c2cnn(-c3ccccc3)c2)c1,-3.09
20,c1cncc(CN2CCc3ccccc3C2)c1,1.48
21,CN(Cc1ccccc1)S(=O)(=O)c1ccc(-c2cc(C(F)(F)F)no2)s1,1.56
22,O=[N+]([O-])Cc1nnc(O)c2ccccc12,2.55
23,O=C1NN=C2CC3CC(CC4=NNC(=O)C43)C12 (centres unmarked),-9.37
24,CC(C)C[C@H](NC(=O)c1ccc(-c2ccc(N)cc2)cc1)C(=O)NCC#N,4.33
25,CN(C)c1ccc(C(O)c2cccs2)cc1 (centres unmarked),2.68
26,CC1CCN(S(=O)(=O)c2ccc(NC(=O)COc3ccccc3Cl)cc2)CC1,-5.58

row,SMILES,% Inhibition @ 10 uM [%]
1,O=c1c2ccccc2nc(CN2CCOCC2)n1-c1ccc([N+](=O)[O-])cc1,7.66
2,CC1(C)CC(=O)c2cnc(NC(=O)C3CCCC3)nc2C1,-6.44
3,CCOC(=O)c1cnc(SCC(=O)c2ccc(Br)cc2)nc1N,1.64
4,C=CC/N=c1\scc(-c2ccccc2)n1CC=C,-8.06
5,Cc1nn(-c2ccccc2)c2sc(C(=O)NCCCO)cc12,-0.28
6,COc1ccc(Cl)cc1N(CC(=O)Nc1ccc(C)cc1C)S(C)(=O)=O,0.324
7,CC(=O)CC1(O)C(=O)N(CN2CCCCC2)c2ccccc21 (centres unmarked),3.58
8,Nc1c(C(=O)NCCc2ccccc2)nnn1Cc1ccccc1,1.05
9,COc1cc(OC)cc(C(=O)Nc2cccc(Cl)c2C)c1,-4.87
10,COCCN1C2=C(C(=O)CC(C)(C)C2)C(c2cccc(O)c2)C2=C1CC(C)(C)CC2=O,-1.6
11,Cc1c(C(=O)NC(C)c2ccc(Cl)cc2)cnn1-c1ccccc1 (centres unmarked),3.48
12,CC1CCC(C(C)C)C(OCC(O)CNC(C)(C)C)C1 (centres unmarked),1.63
13,CCSc1nc2c(c(=O)n1-c1ccc(OC)cc1)C1(CCCCC1)Cc1ccccc1-2,-3.77
14,COc1ccc(OC)c(-c2[nH]c3c(=O)n(C)c(=O)n(C)c3c2O)c1,1.25
15,Cc1ccc(S(=O)(=O)c2nc(S(C)(=O)=O)sc2NCCCOC(C)C)cc1,-0.522
16,COc1ccc(CCNC(=O)c2ccncc2)cc1OC,-1.63
17,CC(C)=CCCC(C)CN(C)CCc1ccccn1 (centres unmarked),1.62
18,CCC(C)NC(=O)CCn1nc(-c2ccc(Cl)cc2)ccc1=O (centres unmarked),-5.67
19,COc1cc2c(cc1OC)C(C(=O)Nc1ccccn1)C1c3ccccc3CCN1C2=O (centres unmarked),-5.22
20,COc1ccc(-c2cc(C(=O)O)c3c(-c4ccc(C)cc4)[nH]nc3n2)cc1OC,7.38
21,COc1ccc(-n2c(SCC(=O)O)nc3sc4c(c3c2=O)CC(C)(C)OC4)cc1,0.385
22,CC(O)CN(CC(C)O)CC1CC=CCC1 (centres unmarked),-0.0494
23,CC1CCN(S(=O)(=O)N2CCCC(C(=O)N3CCN(C)CC3)C2)CC1 (centres unmarked),-0.546
24,COc1ccc(-c2noc(CCC(=O)N3CCCC3)n2)cc1,1.49
25,CC(C)Nc1nc(N)c(C(=O)C23CC4CC(CC(C4)C2)C3)s1,-2.45
26,C=C(C)CN(CC)C1CCN(CC)CC1,-1.56

row,SMILES,% Inhibition @ 10 uM [%]
1,CCCN1CCC(N2CCN(CC)CC2)CC1,-3.27
2,Cc1ccccc1-c1nc(CS(=O)CC(=O)NCCN2CCN(Cc3ccccc3)CC2)c(C)o1 (centres unmarked),3.79
3,CCCCN(C)CCNC(=O)c1[nH]c(C)c(C(C)=O)c1C,-2.29
4,COC1CCCCC1NC(Cc1ccccc1)c1ccccc1 (centres unmarked),5
5,CCCCN1C(=O)C(NC(=O)c2ccccc2OC)(C(F)(F)F)C2=C1CC(C)(C)CC2=O (centres unmarked),-1.52
6,O=C(O)c1nn(-c2ccccc2)c2c1CCc1occc1-2,-2.91
7,Fc1ccc(CCNCc2c[nH]c3ccccc23)cc1,1.88
8,CC(C)c1ccc(C2c3c(-c4ccccc4O)n[nH]c3C(=O)N2CCO)cc1 (centres unmarked),-3.12
9,COc1ccc(C)cc1NC(=O)CN(C)S(=O)(=O)c1ccc(C)cc1,7.04
10,CCc1ccc(N2C(=O)CC(NCCc3ccc(OC)cc3)C2=O)cc1 (centres unmarked),-2.83
11,COc1ccccc1CNc1cnn(C23CC4CC(CC(C4)C2)C3)c(=O)c1Cl,0.738
12,CC(C)OCCCNc1nc2c(S(=O)(=O)c3ccccc3)nnn2c2ccccc12,0.291
13,CC(C)CNC(=O)C(C)c1ccc(CC(C)C)cc1 (centres unmarked),-0.597
14,c1ccc(SCCc2ccncc2)cc1,3.7
15,CN(CCNC(=O)c1cc2c(s1)CS(=O)(=O)C2)C1CCCCC1,0.0695
16,COc1ncc(Cc2ccc(C)cc2)cc1O,5.53
17,CC(C(=O)NC1CCCc2ccccc21)n1ncn2cccc2c1=O (centres unmarked),4.26
18,O=C(CSc1nc(-c2ccccc2)c(-c2ccccc2)[nH]1)N1CCOCC1,-4.43
19,COc1ccc(OC)c(-n2c(CN3CCN(c4ccccc4)CC3)nc3ccccc3c2=O)c1,-1.51
20,Cc1ccc(S(=O)(=O)NCCc2cc3ccc(C)c(C)c3nc2O)cc1,-4.16
21,CC(NCCC(=O)O)c1ccccc1 (centres unmarked),-4.35
22,CN1CN=C2SC3(COC(c4cccc(Br)c4)OC3)C(=O)N2C1 (centres unmarked),-0.357
23,COc1cccc(C2C(C(C)=O)=C(O)C(=O)N2CCC(=O)O)c1 (centres unmarked),1.52
24,CC(C)c1ccc(NC(=O)Cc2cccc3ccccc23)cc1,-4.58
25,C=CCN1C(=O)S/C(=C/c2ccc(-c3ccccc3)o2)C1=O,11
26,N#CCNC(=O)[C@H](CS(=O)(=O)Cc1ccccc1)NC(=O)c1ccoc1,3.1

row,SMILES,% Inhibition @ 10 uM [%]
1,CCCOc1ccccc1C(=O)N(Cc1cccc(F)c1)C1CCS(=O)(=O)C1 (centres unmarked),-1.35
2,O=c1c2ccccc2n2c(-c3ccc(F)cc3)nnc2n1CCc1ccccc1,-5.6
3,CCCOC(=O)c1ccc(-n2nnnc2SCC(=O)N2CCOCC2)cc1,7.1
4,Oc1nnc2ccc(N3CCOCC3)nn12,-0.261
5,COc1cc(/C=C2/SC(N3CCOCC3)=NC2=O)ccc1O,0.673
6,Cc1ccc(OCC(=O)Nc2cc(Cl)ccc2C)cc1,-2.19
7,COCc1cc(O)n2nc(Cc3ccccc3)c(-c3ccccc3)c2n1,-2.2
8,CC(CN1CCC(O)(c2ccc(Br)cc2)CC1)c1ccccc1 (centres unmarked),-3.27
9,Clc1ccc(CSc2nccn2Cc2ccccc2)cc1,-7.55
10,Cc1ccc(-c2c(CN3CCN(C)CC3)csc2C)cc1,0.124
11,COCCNC(=O)c1cc(-c2ccc(OC)cc2)nc2ccccc12,-3.94
12,COc1ccc(Cc2nc3c4cnn(-c5ccccc5)c4ncn3n2)cc1,-3.96
13,CC(=O)N1CCN(CC/N=C/C2=C(O)CC(c3ccc(Cl)cc3)CC2=O)CC1 (centres unmarked),-1.08
14,Cc1c(C)n(C(=O)CN2CCN(c3ccccn3)CC2)c2ccccc12,-1.72
15,COc1ccc(CCCN=C(N)N)cc1Cl,-0.0369
16,CC1=C(C(=O)Nc2ccc(F)cc2)C(c2cccc(Cl)c2Cl)n2nc(CCCO)nc2N1 (centres unmarked),-9.02
17,Cc1cc2oc(C(=O)NCc3ccc(S(N)(=O)=O)cc3)c(C)c2cc1C,3.72
18,CCOc1ccc(S(=O)(=O)/N=C2\C=CC(=O)C(Cl)=C2)cc1,13.3
19,C=CCOC(=O)C1=C(C)OC(N)=C(C#N)C12C(=O)Nc1ccccc12 (centres unmarked),-7.19
20,CCC1CCC(N2CCN(C=O)CC2)CC1 (centres unmarked),-1.41
21,CCN(CC)CC(=O)c1csc2ccccc12,4.22
22,CCc1nnc(NS(=O)(=O)c2ccc(NC(=O)c3ccco3)cc2)s1,-5.56
23,O=C(NCCN1CCC(Cc2ccccc2)CC1)C(Cc1ccccc1)N1Cc2ccccc2C1=O (centres unmarked),0.822
24,CC1(C)COC(c2cc(C(C)(C)C)cs2)=N1,4.03
25,C=CCNC(=O)Nc1ccc(Cl)cc1,4.8
26,CC(=O)c1ccc(N2CCN(C(=O)N[C@@H](CC(C)C)C(=O)NCC#N)CC2)cc1,-5.2

# — publication PMC6919601, “Identification of Plasmodium dipeptidyl aminopeptidase allosteric inhibitors by high throughput screening” (PLoS ONE, 2019)
